“And” between values parts separate entries of the source, which are not always exact repeats. Equal entries are not always repeated. About 40 (0.2%) of roughly 16,000 compounds were called active. Another 1% or so got no clear call; they are omitted. Calls come from the whole dose curve; as a rule, active = well fitted activation curve with a large enough effect; inconclusive = small, poorly fitted or top-dose-only effect, or another doubt; inactive = no such curve, though single readings can be large or run the other way. This is one part of the list.
target: Rap guanine nucleotide exchange factor 4 (Homo sapiens) (UniProt Q8WZA2); assay: Validation qHTS for agonist of cAMP-regulated guanine nucleotide exchange factor 4 (EPAC2); conditions: EPAC2 Rap1B BODIPY-GDP exchange, fluorescence; activation: active compounds read high;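 note: exchange makes BODIPY-GDP fluorescence drop when released from Rap1B; series mostly up to about 150 µM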
Chain of UniProt Q8WZA2 (Q8WZA2 whole entry, looked up): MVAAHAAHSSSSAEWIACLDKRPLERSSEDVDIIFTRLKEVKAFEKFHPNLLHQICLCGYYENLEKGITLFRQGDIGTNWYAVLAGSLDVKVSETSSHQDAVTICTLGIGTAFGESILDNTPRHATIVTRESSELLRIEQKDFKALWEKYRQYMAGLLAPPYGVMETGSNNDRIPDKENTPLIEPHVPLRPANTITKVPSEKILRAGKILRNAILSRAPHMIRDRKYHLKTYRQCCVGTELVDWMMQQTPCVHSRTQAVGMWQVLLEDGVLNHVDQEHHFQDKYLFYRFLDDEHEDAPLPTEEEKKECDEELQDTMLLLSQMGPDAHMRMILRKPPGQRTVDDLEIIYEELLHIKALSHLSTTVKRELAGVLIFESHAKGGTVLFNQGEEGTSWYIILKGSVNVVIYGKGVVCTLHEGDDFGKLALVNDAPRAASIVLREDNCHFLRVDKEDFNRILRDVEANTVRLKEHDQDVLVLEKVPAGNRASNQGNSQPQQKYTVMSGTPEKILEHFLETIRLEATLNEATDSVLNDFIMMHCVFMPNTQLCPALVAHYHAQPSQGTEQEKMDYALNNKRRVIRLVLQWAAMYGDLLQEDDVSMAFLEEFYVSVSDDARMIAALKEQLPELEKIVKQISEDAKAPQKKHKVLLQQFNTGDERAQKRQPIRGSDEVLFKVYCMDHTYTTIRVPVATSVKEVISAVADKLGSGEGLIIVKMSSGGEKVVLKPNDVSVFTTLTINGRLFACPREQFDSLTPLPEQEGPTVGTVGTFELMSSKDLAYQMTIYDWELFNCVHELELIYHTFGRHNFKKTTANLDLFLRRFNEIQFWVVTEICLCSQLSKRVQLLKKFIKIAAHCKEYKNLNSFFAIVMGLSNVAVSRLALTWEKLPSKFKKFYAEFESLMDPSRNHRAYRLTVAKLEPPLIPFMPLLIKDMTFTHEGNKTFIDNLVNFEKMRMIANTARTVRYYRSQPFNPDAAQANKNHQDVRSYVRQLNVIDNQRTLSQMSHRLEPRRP
How it was run: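 Fluorescent exchange assay: 100 nM EPAC2 with 250 nM RAP1B-BODIPY-GDP and 50 uM GDP; compound added, 5 min at room temperature, then read (ex 480/em 540 nm) every 5 min for 30 min. Normalized to 6.5 mM cAMP agonist control.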
% is set by controls: 0 for no effect and ±100 for the full control effect.

activation, inactive:
COc1cccc(-c2nc3cc4c(cc3cc2CN(C(=O)c2cc(C)nn2C)C2CC2)CCC4)c1OC -15.8%
CN(C)C(=O)c1ccc(-c2ccc3ncnc(N(C)C)c3c2)cc1 -8.88%
CCCCCc1ccc(-c2cn(Cc3ccc([N+](=O)[O-])cc3)nn2)cc1 -1.3%
COCCn1c(=O)c(CCc2ccccc2)nc2cnc(N3CCN(C)CC3)nc21 -2.75%
C=CC1=C(C)C2=NC1=CC1=NC(=CC3=NC(=CC4=NC(=C2)C(C)=C4CCC(=O)O)C(CCC(=O)O)=C3C)C(C=C)=C1C.[Zn] 0.597%
Cn1c(=O)c(-c2ccccc2)nc2cnc(Nc3ccccc3)nc21 -10.3%
O=C1CCN(CCc2ccccc2)CCN1CCO -8.5%
CC1CC2(C)Oc3ccccc3C3OCC1(COC(=O)Nc1ccccc1)C(C)C32 (centres undefined) 10.1%
COc1cc(/C=C/C(=O)CC(=O)/C=C/c2ccc(O)c(OC)c2)ccc1O 11.6% and -19.4%
Cc1cccc(CNc2cc(-c3cccc(C#N)c3)ncn2)c1 -7.29%
COc1ccccc1-c1ccnc(-n2ncc(C(=O)NCc3cccc(C)n3)c2C)n1 -6.88%
COc1cc(CN2CCC3(CCC(CNC(=O)c4ccccc4)O3)CC2)cc(OC)c1 (centres undefined) -4.06%
COc1cc(C)c(CN2C[C@H](Sc3ccccn3)C[C@H]2C(=O)N(C)C)cc1C -7.63%
CCOc1ccc(NC(=S)Nc2ccc(OCC)cc2)cc1 11.6%
CC(=O)OC1CC(OC(C)=O)[C@]2(C)C(CC(O)[C@]3(C)C2CC[C@@]2(C)C(c4ccoc4)OC(=O)C4O[C@]432)C1(C)C (some centres undefined) -14.3%
CC(C)=CCOc1cc2oc(=O)ccc2cc1O -11.5%
Cc1cc(O)c(C)c2c1CC[C@H]1[C@H](C)C(=O)O[C@H]21 -24.3%
CC1(C)C(=O)CC[C@@]2(C)C1CC(O)[C@@]1(C)C3=CC(=O)OC(c4ccoc4)[C@]3(C)CCC21 (some centres undefined) -0.469%
O=C(O)CSCC(=O)NC1CCSC1=O (centres undefined) 3.47%
O=C1C(SCCO)=C(SCCO)C(=O)c2ccccc21 13.8% and 13.5%
O=C(Nc1ccccc1)N1CCC2(CC1)CCN(S(=O)(=O)c1ccccc1)CC2 8.11%
COc1ccc(Oc2ncc3nc(-c4ccc(F)cc4)c(=O)n(Cc4cccs4)c3n2)cc1 2.57%
CCCCCCCC/C=C\CCCCCCCC(=O)OCC(CO)OC(=O)CCCCCCC/C=C\CCCCCCCC (centres undefined) -3.26%
CNC(=O)Oc1ccc2c(c1)[C@]1(C)CCN(C)[C@@H]1N2C -37.2% and 9.74%
O=C1c2cccc3c2[C@H](CCC3)CN1[C@@H]1CN2CCC1CC2 5.17%
COc1cccc(Nc2ncc3nc(-c4ccc(Cl)cc4)c(=O)n(CCC#N)c3n2)c1 -56.1%
O=C(c1cc(C(F)(F)F)cc(C(F)(F)F)c1)N1CCC[C@@]2(CCN(c3ccncc3)C2)C1 -8.96%
C[C@H]1C(O)[C@@]23CCC4C5(C=[N+](CCO)C[C@]4(C)CCC5)C2C[C@@H]1C3 (some centres undefined) -23.1%
COc1ccc(CNc2ccnc(-c3cccc(NS(C)(=O)=O)c3)n2)c(OC)c1 -12.2%
COC(=O)N1CCC2(CC1)CCN(c1ccccc1)CC2 -23.9%
CCCCCCN(CCCCCC)C(=O)Cc1c(-c2ccc(Cl)cc2)[nH]c2ccc(Cl)cc12 -0.309% and -2.58%
NC(C(=O)O)c1cc(O)cc(O)c1 (centres undefined) 6.38%
Cc1ccc(SC[C@H](Cc2ccccc2)N2CC[C@@H](NC(=O)OCc3ccccc3)CCC2=O)cc1 -33.6%
NCC[C@H](O)C(=O)N[C@@H]1C[C@H](N)[C@@H](O[C@H]2O[C@H](CN)[C@@H](O)[C@H](O)[C@H]2O)[C@H](O)[C@H]1O[C@H]1O[C@H](CO)[C@@H](O)[C@H](N)[C@H]1O -15.2%
Cn1cc(-c2nc3cncnc3n(Cc3ccc(F)cc3)c2=O)c2ccccc21 -11.4%
O=C1C[C@@H]2c3c(cccc3CN1Cc1ccc(Br)cc1)C[C@@H](O)[C@H]2O -9.08%
CN(C)c1ccc(/C=C/c2ccnc3c(-c4ccccc4)cccc23)cc1 1.63%
N#Cc1cccc(-c2ccc3ncnc(NCCN4CCOCC4)c3c2)c1 -10.9%
CSc1ccccc1C(=O)NCc1nc(-c2cccc(NC(=O)c3ccoc3C)c2)oc1C 16%
CC(C)C1CCC(C(=O)N[C@H](Cc2ccccc2)C(=O)O)CC1 (some centres undefined) 4.95%
COc1ccc(CNc2ncncc2-c2ccccc2C(F)(F)F)c(OC)c1 -8.59%
COc1ccc(-n2c(CCNC(=O)c3ccc(-c4cccc(F)c4)cc3)nnc2SC)cc1 9.68%
CCCCN1C[C@H](Cc2ccccc2)[C@@H](CC(=O)NCc2ccc(OC)cc2)C1=O -37.7%
COc1cccc(Cn2c(=O)c(CCc3ccccc3)nc3cnc(N4CCN(C)CC4)nc32)c1 5.16%
NC(=O)COCCN1CCN(C(c2ccccc2)c2ccc(Cl)cc2)CC1 (centres undefined) -10.9%
OC[C@H]1O[C@@H](n2cnc3c(NC4CCCC4)nc(Cl)nc32)[C@H](O)[C@@H]1O -1.85%
COc1ccc(NC(=O)N2CCCC3(CCN(C(=O)c4ccncc4)CC3)C2)cc1 -9.71%
CCCCC(=O)N(Cc1ccc(-c2ccccc2-c2nn[nH]n2)cc1)[C@@H](C(=O)O)C(C)C 6.92%
CC(C)C(=O)Nc1ccc([N+](=O)[O-])c(C(F)(F)F)c1 -14.5% and -18.6% and -46.2%
C[C@H]1O[C@@H](O[C@H]2CC[C@@]3(C)[C@H](CC[C@@H]4[C@@H]3C[C@@H](O)[C@]3(C)[C@@H](C5=CC(=O)OC5)CC[C@]43O)C2)C[C@H](O)[C@@H]1O[C@H]1C[C@H](O)[C@H](O[C@H]2C[C@H](O)[C@H](O[C@@H]3O[C@H](CO)[C@@H](O)[C@H](O)[C@H]3O)[C@@H](C)O2)[C@@H](C)O1 -10.5%
Cc1c(C(=O)N2CCCC2)sc2ncnc(NCCCN3CCOCC3)c12 5.08%
COc1ccccc1-c1nc(N(C)C)c2ccccc2n1 -20.4%
CC1=CC(=O)C2=C(C)C[C@@H]3OC(=O)[C@@H](C)[C@H]3C=C12 -13.3%
COCC(=O)Nc1cc(C(=O)NC2CCCc3ccccc32)c2c(c1)nc(-c1ccncc1)n2C (centres undefined) -13.7%
O=S(=O)(N(Cc1ccccc1)[C@@H](CO)Cc1ccccc1)N(Cc1ccccc1)[C@@H](CO)Cc1ccccc1 -18.6%
OCC1CCCN(c2nc3cc4c(cc3cc2CNCc2cccs2)OCO4)C1 (centres undefined) -2.67%
COc1c2c(nc3ccccc13)OC(C(C)(O)CO)C2 (centres undefined) -16.3%
COc1ccc2c(c1)CCc1cnc(-n3ncc(C(=O)N(C)CC4CCCN(C)C4)c3C)nc1-2 (centres undefined) 0.0605%
COc1cc2c(cc1OC)-c1c(OC)c(OC)cc3ccnc(c13)C2=O 3.55%
CC[C@@]1([C@@H]2O[C@@H]([C@H]3O[C@@](O)(CO)[C@H](C)C[C@@H]3C)C[C@@H]2C)CC[C@H]([C@]2(C)CC[C@]3(C[C@H](O)[C@@H](C)[C@@H]([C@@H](C)[C@@H](OC)[C@H](C)C(=O)O)O3)O2)O1 (stereo in doubt) -12.6% and -19.1%
CC(O)CCCCn1c(=O)c2c(ncn2C)n(C)c1=O (centres undefined) -21.6%
CC(=O)Oc1cc2c(s1)CCN(C(C(=O)C1CC1)c1ccccc1F)C2 (centres undefined) 4.55%
NCCCCCCCCCCNS(=O)(=O)c1cccc2c(Cl)cccc12 10.2%
CN(C)[C@@H]1C(=O)C(C(N)=O)=C(O)[C@@]2(O)C(=O)C3=C(O)c4c(O)ccc(Cl)c4[C@@H](O)[C@H]3C[C@@H]12 -14.1% and 4.77%
CCN1CCC(N[C@H]2C[C@@H](C(=O)NC)N(Cc3cccc4ccccc34)C2)CC1 1.72%
COC(=O)[C@@H](NC(=O)C1CCCN(c2nc(C)c3ccc(C)cc3n2)C1)C(C)C (some centres undefined) -10.5%
COc1c(C=O)c(O)cc2c1C(=O)c1ccccc1C2=O -4.05% and 12.3%
CCOC(=O)/C=C/c1ccccc1S(=O)(=O)NC(C)(C)C -16.5%
COc1cccc(Cn2c(=O)c(-c3ccc(Cl)cc3)nc3cnc(N4CCNCC4)nc32)c1 18.6%
CCC1CN(CC(=O)NC(C)c2c(C)nn(C)c2C)Cc2cc(OC)ccc2O1 (centres undefined) -11%
C[C@@H](CSc1ccc(Br)cc1)CN1CC[C@H](C(C)(C)C)CCC1=O -6.78%
C#C[C@]1(O)CC[C@H]2[C@@H]3CCC4=CCCC[C@@H]4[C@H]3C(=C)C[C@@]21CC -6.57%
CC(=O)NCCNc1ncnc2ccc(-c3cccc(NS(C)(=O)=O)c3)cc12 -8.1%
Cc1cc(C(=O)Nc2cccc(-c3nc(CNC(=O)c4ccccc4C(F)(F)F)c(C)o3)c2)c(C)o1 -15.1%
